Laboratory results published in patent US20190389958A1, “ANTI-CXCR4 ANTIBODIES” (MSM Protein Technologies, Inc., priority 2017, published 2019).

What was measured:
RA1 cells [1] = assay: Anti-tumor activity in a SCID/RA1 xenograft model of Burkitt's lymphoma (Example 11); type: in vivo, SCID mice; conditions: for Mean Survival / Median Survival / Mice alive at the end of the study = day 81 / % Increased life span: 10 mg/kg, IV, Q4D × 6; for % Increased life span: ILS % = [(T-C)/C]×100 of median survival; for increase in survival rate in comparison with control mice: repeated treatment, p<0.001
Description: The therapeutic effect of test antibodies was evaluated in an animal model of Burkitt's lymphoma. In the model used, systemic cancer in SCID mice causes hind limb paralysis and infiltrates all major organs.
Forty-eight hours before tumor cell injection, female SCID mice (7-9 weeks old, weighing 17-22 g) were irradiated with a γ-source (1.8 Gy, ^60Co). […] The tumor bearing mice were distributed on D4 into 10 groups of 10 mice each based on body weight using Vivo Manager® software (Biosystemes, Dijon, France). […] Treatment started on D4: mice were administered intravenously a 5 mg/kg or a 10 mg/kg dose of test antibody on days 4, 8, 12, 16, 20 and 24. The vehicle for injection was 10 mM Na-Citrate, 150 mM NaCl, 50 mM Arginine (pH 5.5). Body weights were measured and recorded twice weekly. Mean survival time was calculated for each group as the mean of the day of death, and median survival time was calculated for each group as the median of the day of death. The efficacy of each test antibody was judged by the increased life span value (ILS). ILS % was expressed as follows: ILS %=[(T-C)/C]×100. T was the median of the survival times of animals treated with each test antibody, and C was the median survival time of control animals treated with vehicle.

hCXCR4 = target: T1, hCXCR4 (Homo sapiens, UniProt P61073); assay: Specificity for CXCR4, flow cytometry on lines transfected to over-express CXCR4 (Example 6); type: binding; conditions: test IgG at 100 nM
T1 construct: expressed in transfected cells; host or cells: R1610, Cf2Th, CHO
Description: Cells over-expressing different GPCRs other than CXCR4 and several lines transfected to over-express CXCR4 (R1610-hCXCR4, Cf2Th-hCXCR4 and CHO-hCXCR4) were compared. Cultures were incubated with a test IgG at 100 nM in FACS buffer for 40 min at 4° C. Thereafter, cells were washed twice, stained with anti-human-Fc antibody-PE conjugate (Jackson Immunoresearch Laboratories Inc., West Grove, Pa.), washed twice in FACS buffer and then transferred to FIX buffer. Fluorescence intensities were measured by GUAVA PCA-96 at 425V (in triplicate).
The expression of GPCRs other than CXCR4 was confirmed using commercially available antibodies (positive controls). For example, a commercial anti-CXCR1 antibody was used as a positive control for confirming the expression of CXCR1 on the CXCR1-transfected CHO cells.

RA1 cells [2] = assay: Antibody-dependent cell-mediated cytotoxicity (ADCC), LDH release (Example 10); type: cell-based, human; conditions: E:T ratio 20:1
Description: ADCC was measured with RA1 cells as the target cells (T) and using the CytoTox 96® Non-Radioactive Cytotoxicity Assay (Promega Corp., Fitchburg, Wis.)), which assay measures lactate dehydrogenase (LDH) release. A round-bottom 96-well culture plate was set up with the following control and experimental wells (100 microliter final volumes):
a. RA1 cells (for target cell spontaneous LDH release control) b. RA1 cells (for target cell maximum LDH release control) c. Culture medium (RPMI 1640 Medium (1X) without phenol red) used for volume correction control d. Culture medium (for culture medium background control) e. RA1 plus effector cells (E) (for target plus effector cell spontaneous LDH release control) f. Experimental wells with effector and target cells (10^5) with serial dilutions of each test IgG or without test IgG.
The plates were centrifuged at 1600 rpm for 2 minutes and incubated at 37° C. for 4 hours. One hour prior to supernatant harvest, 20 microliters of Lysis Solution (10×) were added to the conditions b) and c). The plates were centrifuged at 1600 rpm for 2 minutes, and 50 microliters of the supernatant from each well of the assay plates were transferred to corresponding wells of a flat-bottom 96-well enzymatic assay plate. Substrate Mix (50 microliters) was added to each well of the latter plate, and the plate (protected from light) was incubated for 30 minutes at room temperature. Finally, 50 microliters of Stop Solution were added to each well, and absorbance (OD values) was measured at 490 nm. Each condition was tested in triplicates.
Preliminary experiments had been conducted in order to determine the optimal E:T ratio. The data shown below were obtained at a 20:1 E:T ratio with 10^5 RA1 target cells. The effector cells used in this study were prepared as follows: human peripheral blood mononuclear cells (PBMCs) obtained from a healthy donor were isolated by means of density gradient centrifugation using Lymphocyte Separation Medium (ref. J15-004, Invitrogen Corp., Carlsbad, Calif.). PBMCs at 2×10^6 per mL were cultured for two days in RPMI 1640 with 10% FCS, penicillin/streptomycin and 100 units per mL of human recombinant IL-2 (obtained from Roussel-Uclaf) in a 37° C. humidified incubator (5% CO2).
ADCC percentages obtained at different concentrations of test IgGs were calculated with the formula % ADCC=(f−e)/(b−a)×100, i.e., % ADCC=(OD of Target+Effector cells +/−Test Mab −OD of Spontaneous Release of Target+Effector cells)/(OD Maximal Release Target cells −OD Spontaneous Release of Target cells)×100.

T1 sequence (P61073 whole entry): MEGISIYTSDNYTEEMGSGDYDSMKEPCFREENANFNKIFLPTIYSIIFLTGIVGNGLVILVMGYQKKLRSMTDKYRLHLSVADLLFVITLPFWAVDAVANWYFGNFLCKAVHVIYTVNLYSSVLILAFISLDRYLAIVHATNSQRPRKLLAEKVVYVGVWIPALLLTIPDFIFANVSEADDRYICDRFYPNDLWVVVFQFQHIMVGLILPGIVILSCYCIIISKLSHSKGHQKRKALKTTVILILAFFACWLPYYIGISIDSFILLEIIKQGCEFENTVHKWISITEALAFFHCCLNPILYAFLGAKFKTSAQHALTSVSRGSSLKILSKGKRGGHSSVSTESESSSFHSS

B1: V62.1: anti-CXCR4 antibody from Fab phage library; LCVR SEQ ID NO 13, HCVR SEQ ID NO 15 (antibody, V domains shown)
VH: [no letters for about 100 residues]QGKTRVYGYRWHGYGSTHALDYWGQGTLVTVSS
VL: EIVLTQSPGTLSLSPGERATLSCRASQSVSSSYLAWYQQKPGQAPRLLIYGASSRATGIPDRFSGSGSGTDFTLTISRLEPEDFAVYYCQQSDYSYPFTFGQGTKVEIKRT
modifications: heavy chain variable region HCVR, variant 1; light chain variable region LCVR, variant 1
With B1 the “Mean Survival” value (RA1 cells [1]) was 61 days, the “Median Survival” value (RA1 cells [1]) was 61 days and the “Mice alive at the end of the study = day 81” value (RA1 cells [1]) was 0/10. For the same molecule, the “% Increased life span” value (RA1 cells [1]) was 126%, the “increase in survival rate in comparison with control mice” value (RA1 cells [1]) was 2 fold and the MFI (hCXCR4; cell line CHO-hCXCR4) was 2053. The MFI (hCXCR4; cell line R1610-hCXCR4) was 812, the ADCC percentage (RA1 cells [2]; 0.0001 μg/mL) was 8% and the ADCC percentage (RA1 cells [2]; 0.001 μg/mL) was 28%. It also gave an ADCC percentage (RA1 cells [2]; 0.01 μg/mL) of 45%, an ADCC percentage (RA1 cells [2]; 0.1 μg/mL) of 44% and an ADCC percentage (RA1 cells [2]; 1 μg/mL) of 45%.

B2: V62.1-R108H: matured anti-CXCR4 antibody, point mutation R108H in CDR3H; LCVR SEQ ID NO 13, HCVR SEQ ID NO 16 (antibody, V domains shown)
VH: [no letters for about 100 residues]QGKTRVYGYHWHGYGSTHALDYWGQGTLVTVSS
VL: EIVLTQSPGTLSLSPGERATLSCRASQSVSSSYLAWYQQKPGQAPRLLIYGASSRATGIPDRFSGSGSGTDFTLTISRLEPEDFAVYYCQQSDYSYPFTFGQGTKVEIKRT
modifications: heavy chain variable region HCVR, variant 2; light chain variable region LCVR, variant 1
In the case of B2, the “Mean Survival” value (RA1 cells [1]) is reported as 60 days, the “Median Survival” value (RA1 cells [1]) is reported as 59 days and the “Mice alive at the end of the study = day 81” value (RA1 cells [1]) is reported as 1/10. For the same molecule, the “% Increased life span” value (RA1 cells [1]) was 119%, the “increase in survival rate in comparison with control mice” value (RA1 cells [1]) was 2 fold and the MFI (hCXCR4; cell line CHO-hCXCR4) was 1850. The MFI (hCXCR4; cell line R1610-hCXCR4) was 513, the ADCC percentage (RA1 cells [2]; 0.0001 μg/mL) was 8% and the ADCC percentage (RA1 cells [2]; 0.001 μg/mL) was 15%. The ADCC percentage (RA1 cells [2]; 0.01 μg/mL) was 23%, the ADCC percentage (RA1 cells [2]; 0.1 μg/mL) was 57% and the ADCC percentage (RA1 cells [2]; 1 μg/mL) was 59%.
